In the supplement of paper PMC6746778:
Where a name gives a salt, the structure may show the parent alone. The list shows a part of the results. Single values are uncertain, as repeats are few or missing.

Assays:
Experiment in all cases: proliferation Z-score within cell line (SRB, relative to all inhibitors screened on that line); triple-negative breast cancer lines and a kinase inhibitor library; SRB is the sulforhodamine B protein stain; higher = less growth inhibition (more resistant)
Details in all cases: concentration: 1 µM; 4 days
Bt20 = test system: Bt20
Bt549 = test system: Bt549
HCC1143 = test system: HCC1143
HCC1806 = test system: HCC1806
HCC1937 = test system: HCC1937
HCC38 = test system: HCC38
HCC70 = test system: HCC70
Hs578T = test system: Hs578T
MDA-MB-231 = test system: MDA-MB-231
MDA-MB-435s = test system: MDA-MB-435s
MDA-MB-436 = test system: MDA-MB-436
MDA-MB-453 = test system: MDA-MB-453
MDA-MB-468 = test system: MDA-MB-468
SKBR7 = test system: SKBR7
SUM1315MO2 = test system: SUM1315MO2
SUM149PT = test system: SUM149PT
SUM159PT = test system: SUM159PT
SUM185PE = test system: SUM185PE
SUM229PE = test system: SUM229PE
SUM52PE = test system: SUM52PE
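Further: Single-dose primary screen of a 378-member kinase inhibitor library in 96-well plates, with growth read as absorbance of protein-bound SRB dye after TCA fixation.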

Structure (SMILES)	proliferation Z-score within cell line (Bt20)	proliferation Z-score within cell line (Bt549)	proliferation Z-score within cell line (HCC1143)	proliferation Z-score within cell line (HCC1806)	proliferation Z-score within cell line (HCC1937)	proliferation Z-score within cell line (HCC38)	proliferation Z-score within cell line (HCC70)	proliferation Z-score within cell line (Hs578T)	proliferation Z-score within cell line (MDA-MB-231)	proliferation Z-score within cell line (MDA-MB-435s)	proliferation Z-score within cell line (MDA-MB-436)	proliferation Z-score within cell line (MDA-MB-453)	proliferation Z-score within cell line (MDA-MB-468)	proliferation Z-score within cell line (SKBR7)	proliferation Z-score within cell line (SUM1315MO2)	proliferation Z-score within cell line (SUM149PT)	proliferation Z-score within cell line (SUM159PT)	proliferation Z-score within cell line (SUM185PE)	proliferation Z-score within cell line (SUM229PE)	proliferation Z-score within cell line (SUM52PE)
CS(=O)(=O)N1CCN(Cc2cc3nc(-c4cccc5[nH]ncc45)nc(N4CCOCC4)c3s2)CC1	-0.856	0.201	-1.13	-0.0256	-0.556	0.535	-1.05	0.422	-0.202	-0.455	-0.45	0.542	-0.292	0.597	-0.98	0.229	0.399	-1.64	-0.539	-1.07
CSc1cccc(Nc2ncc3cc(-c4c(Cl)cccc4Cl)c(=O)n(C)c3n2)c1	0.966	0.678	1.02	1.8	0.847	0.618	0.649	0.504	0.376	0.464	0.351	0.576	1.01	0.739	-0.79	0.344	0.604	-0.33	1.22	-0.874
CN1CC[C@@H](c2c(O)cc(O)c3c(=O)cc(-c4ccccc4Cl)oc23)[C@@H]1CO	-2.68	-3.32	-3.76	-1.43	-3.28	-4.91	-3.29	-3.35	-2.53	-2.35	-2.62	-2.21	-2.42	-2.82	-2.3	-1.82	-3.85	-1.41	-2.43	-1.54
COC(=O)Nc1ccc(-c2nc(N3CCOCC3)c3cnn(C4CCN(C(=O)OC)CC4)c3n2)cc1	-1.79	-0.393	-1.85	0.553	-1.41	0.525	0.705	-0.393	-1.39	-1.82	-1.25	-0.306	-1.25	-0.636	-1.88	-1.41	-3.3	-1.83	-1.63	-1.37
CN1CCN(S(=O)(=O)c2ccc(-c3cnc(N)c(C(=O)Nc4cccnc4)n3)cc2)CC1	1.19	0.549	0.838	0.683	0.709	0.463	0.638	0.67	0.292	0.59	1.57	0.884	0.368	0.84	2.68	1.07	0.573	0.79	1.65	1.33
O=S(=O)(c1cccc2cnccc12)N1CCCNCC1 [Fasudil (HA-1077) HCl]	0.812	0.716	0.422	0.448	-0.00819	0.581	0.449	0.677	0.909	0.895	0.197	0.548	1.04	0.0956	0.83	0.612	0.365	0.582	0.78	1.32
COc1cccc2cc(-c3nc([C@H]4CC[C@H](C(=O)O)CC4)n4ncnc(N)c34)[nH]c12	-1.19	-1.23	-0.901	-0.715	-0.906	-0.376	-1.5	-1.06	-0.555	-0.68	-1.03	-1.43	-0.417	-0.734	-1.35	-0.871	-0.498	-1.32	-0.428	-1.1
CC(C)CC(=O)Nc1n[nH]c2c1CN(C(=O)C1CCN(C)CC1)C2(C)C	-0.362	-1.89	-0.215	-1.29	-0.425	-0.339	0.319	-2.24	-1.54	-1.09	0.148	-1.46	-1.34	-2.03	-0.117	-1.25	0.776	-0.319	-0.853	-0.299
CN(C)Cc1cccc(N=C(c2ccccc2)c2c(O)[nH]c3cc(C(N)=O)ccc23)c1	0.41	0.641	1.11	0.554	0.762	0.602	0.662	0.7	0.748	0.861	0.957	1.05	0.819	0.565	0.598	0.647	0.68	0.295	0.272	0.658
CN(C[C@@H]1COCCO1)S(=O)(=O)Nc1ccc2ccc3ncc(-c4cnn(C)c4)cc3c(=O)c2c1	0.915	0.812	0.734	0.907	0.64	0.632	0.8	0.668	0.871	0.631	0.829	1.02	0.724	1.03	-0.67	0.123	0.718	-1.1	0.766	-1.22
CNC(=O)c1cc(Oc2ccc(NC(=O)Nc3ccc(Cl)c(C(F)(F)F)c3)c(F)c2)ccn1 [Regorafenib (BAY 73-4506)]	0.816	0.672	1.06	1.37	0.473	0.494	0.451	-0.0618	-0.828	-1.02	-0.0591	0.393	0.913	0.817	0.418	0.899	0.603	0.615	1.44	-0.312
Cc1cc(Nc2ncnc3ccc(-c4ccc(CNCCS(C)(=O)=O)o4)cc23)ccc1Oc1ccn2ncnc2c1 [HER2-Inhibitor-1]	0.956	0.724	0.836	0.909	0.813	0.684	0.828	0.813	0.825	0.954	1.19	0.932	0.934	0.832	0.931	0.961	0.732	0.889	0.691	1.26
Cc1ccc(C(=O)Nc2ccc(CN3CCN(C)CC3)c(C(F)(F)F)c2)cc1C#Cc1cnc2cccnn12	-0.756	0.558	1.08	1.58	0.844	0.723	0.749	0.338	-2.04	-1.75	0.764	-0.0258	-0.462	1.39	-1.9	-0.291	0.619	-1.72	-1.09	-1.47
Cc1ccc(S(=O)(=O)Nc2nc3ccccc3nc2Nc2ccc3nsnc3c2)cc1	0.606	0.377	-0.22	0.648	-0.518	0.596	0.0684	0.558	0.453	0.734	-0.574	0.776	0.554	0.654	0.455	0.517	0.0398	0.474	1.03	1.13
O=C(NC1CCNCC1)c1n[nH]cc1NC(=O)c1c(Cl)cccc1Cl	-2.62	-2.82	0.889	-2.15	1.04	-2.76	0.811	-2.96	-2.07	-2.02	0.637	-1.96	-1.85	-2.53	-2.34	-2.32	0.494	-1.52	-2.41	-1.04
Nc1nc(Nc2ccc(S(N)(=O)=O)cc2)nn1C(=O)c1c(F)cccc1F	0.533	-0.667	0.711	0.358	0.433	-0.218	0.586	0.0172	-1.01	-0.122	0.614	-0.574	-1.16	-0.609	0.667	0.111	0.654	0.178	0.465	0.133
O=c1cc(N2CCOCC2)oc2c(-c3cccc4c3sc3ccccc34)cccc12	0.656	0.334	0.567	0.325	-0.307	0.512	0.572	0.293	0.158	0.768	0.499	1	0.262	0.428	0.536	0.876	0.695	0.898	-0.0392	0.307
CCNC(=O)Nc1ccc(-c2nc3c(c(N4CCOC[C@@H]4C)n2)CCN(C2COC2)C3)cc1	-2.01	-2.7	-1.29	-0.829	-2.38	-1.42	-2.81	-2.91	-1.29	-1.42	-2.5	-2.19	-1.52	-1.85	-1.67	-1.48	-1.85	-2.09	-1.42	-1.92
CNC(=O)c1cc(COc2nnc(Nc3ccc(Cl)cc3)c3ccoc23)ccn1 [Telatinib]	-0.267	0.494	0.399	0.422	0.663	0.328	0.311	0.449	0.967	0.578	0.131	0.482	0.83	0.0144	0.317	0.373	0.13	-0.0366	0.279	0.357
COc1ccc(-c2cc3c(C)nc(N)nc3n([C@H]3CC[C@H](OCCO)CC3)c2=O)cn1	-1.65	-1.74	-0.942	-1.31	-1.68	-0.741	-1.7	-1.91	-1.27	-1.43	-1.33	-1.55	-1.27	-1.54	-1.48	-1.3	-1.13	-1.68	-1.53	-1.27
CCn1c(-c2nonc2N)nc2c(C#CC(C)(C)O)ncc(OC[C@H]3CCCNC3)c21	-1.66	-1.28	0.784	0.485	0.689	0.0203	0.506	-1.15	0.762	0.846	0.448	-2.17	-0.994	0.977	0.493	-1.64	0.526	-1.52	0.761	-1.09
COc1cc(F)c(F)c(Nc2ccc(I)cc2F)c1NS(=O)(=O)C1(C[C@H](O)CO)CC1 [Refametinib (RDEA119, Bay 86-9766)]	0.00543	-0.386	-0.388	-1.92	0.485	-0.747	0.0459	-1.33	-2.09	-2.01	0.0227	-1.47	-0.377	0.0902	-0.177	-2.78	0.52	-0.412	-2.45	-1.14
O=C(Nc1ccc(-c2ccnc(Nc3ccc(N4CCOCC4)cc3)n2)cc1)C1CCCN1 (stereo not given)	0.827	0.622	0.312	0.424	0.64	0.365	0.596	0.279	0.236	0.778	0.508	0.395	0.266	0.055	0.799	0.793	0.526	0.705	1.13	0.842
Cn1cnc2c(F)c(Nc3ccc(Br)cc3Cl)c(C(=O)NOCCO)cc21 [Selumetinib (AZD6244)]	0.101	0.267	-1.57	-1.8	-0.0935	-0.768	-0.497	-0.32	-1.99	-1.89	-0.231	0.785	0.547	1.54	0.406	-1.54	0.181	1.13	-1.9	-1.45
COCCOc1ccc2c(c1)ncn2-c1ccc2cccc(N3CCC(N)CC3)c2n1	0.438	0.28	-0.0541	0.533	0.552	-0.0589	0.541	0.278	0.294	0.715	0.572	-0.241	0.761	-0.666	-0.135	0.656	0.261	1.89	-0.178	0.582
